Assay results taken from PubChem BioAssay AID1468 (National Center for Advancing Translational Sciences (NCATS), 2008).
Where “and” joins values, the source holds several entries; their conditions need not be identical. Equal values may be shown once. Screen size: about 280,000 compounds; about 1,100 (0.39%) were called active. This list was built around the results that the source calls inconclusive (neither active nor inactive); the mix of calls is not that of the screen. Calls follow the shape of the dose curve; as a rule, active = well fitted inhibition curve with a large enough effect; inconclusive = small, poorly fitted or top-dose-only effect, or effect the other way; inactive = flat fitted curve, though single readings scatter. Potencies of inconclusive entries are left out as doubtful fits.

Target: Microtubule-associated protein tau (Homo sapiens) (UniProt P10636)
Experiment: qHTS for Inhibitors of Tau Fibril Formation, Fluorescence Polarization; also: nearly all actives have a fitted effect of over 55% in size
Settings: K18 P301L tau heparin fibrillization, Alexa594 FP, 6 h; series mostly up to 57.7 µM; activity, negative = inhibition: at the top concentration
Method in brief: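 FP of Alexa 594-tau after heparin (20 uM) induction. Substrate: human K18 P301L, 15 uM unlabeled, 0.24 uM labeled. Buffer 100 mM sodium acetate pH 7. 6 hr, 37 C.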
% is scaled to controls: 0 for no effect and ±100 for the full control effect; potency is read from the fitted curve at half-maximal effect; tags tell the direction and shape of the fitted curve.

UniProt P10636, sequence (P10636 whole entry, looked up): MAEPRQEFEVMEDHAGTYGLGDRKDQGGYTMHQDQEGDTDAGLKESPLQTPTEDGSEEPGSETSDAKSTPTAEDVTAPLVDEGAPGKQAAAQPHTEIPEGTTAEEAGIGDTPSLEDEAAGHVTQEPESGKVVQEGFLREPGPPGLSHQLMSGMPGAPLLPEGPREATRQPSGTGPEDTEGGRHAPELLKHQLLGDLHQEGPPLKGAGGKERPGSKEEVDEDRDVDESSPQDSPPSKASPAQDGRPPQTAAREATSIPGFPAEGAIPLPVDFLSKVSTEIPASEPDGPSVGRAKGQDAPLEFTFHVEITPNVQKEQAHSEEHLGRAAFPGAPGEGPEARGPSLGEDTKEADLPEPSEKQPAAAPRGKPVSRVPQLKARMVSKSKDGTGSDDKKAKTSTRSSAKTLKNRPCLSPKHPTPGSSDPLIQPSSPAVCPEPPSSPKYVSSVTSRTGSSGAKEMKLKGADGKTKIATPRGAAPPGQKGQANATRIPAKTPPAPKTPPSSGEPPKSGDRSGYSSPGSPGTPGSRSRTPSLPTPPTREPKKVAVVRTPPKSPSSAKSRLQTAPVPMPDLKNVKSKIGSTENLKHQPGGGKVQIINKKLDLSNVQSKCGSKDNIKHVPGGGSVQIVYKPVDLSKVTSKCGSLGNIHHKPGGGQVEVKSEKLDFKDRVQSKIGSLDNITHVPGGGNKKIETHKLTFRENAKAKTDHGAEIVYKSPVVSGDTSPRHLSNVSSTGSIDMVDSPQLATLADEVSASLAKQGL

| Structure (SMILES) | activity, negative = inhibition | Potency |
| --- | --- | --- |
| CCOC(=O)C1CCN(C(c2cc3ccc(C)c(C)c3[nH]c2=O)c2nnnn2C2CCCCC2)CC1 (configuration not stated) | inactive: -0.688% | – |
| CCO[C@@H]1OC(C(=O)N2CCN(Cc3ccc4c(c3)OCO4)CC2)=C[C@H](c2ccc(Br)cc2)[C@H]1CCCO | – | inconclusive [activator, single point] |
| Cc1ccnc(NC(=O)c2ccccc2[N+](=O)[O-])c1 | inactive: 2.23% | – |
| Clc1ccccc1CNc1nc2ccccc2c2nc(-c3ccccc3)nn12 | – | inconclusive [inhibitor, partial curve, poor fit] |
| Nc1ccc(N(CCO)CCO)cc1 | – | active: 15.8 µM |
| Cc1cc(C)cc(NC(c2cccc(Cl)c2)c2nnc(-c3ccccc3)o2)c1 (configuration not stated) | – | inconclusive [inhibitor, single point] |
| CCN(CC)S(=O)(=O)c1ccc(C)c(NC(=O)COc2ccc(Br)cc2Cl)c1 | – | inconclusive [inhibitor, single point] |
| CC(=O)c1c(C)[nH]c(C(=O)OC2CCCCC2=O)c1C (configuration not stated) | – | inconclusive [inhibitor, single point] |
| O=C1c2oc3ccccc3c(=O)c2C(c2ccccc2F)N1Cc1ccc2c(c1)OCO2 (configuration not stated) | inactive: -3.7% | – |
| CCc1ccc(S(=O)(=O)ON2C(=O)c3ccccc3C2=O)cc1 | – | inconclusive [inhibitor, partial curve, poor fit] |
| Cc1cc([N+](=O)[O-])c2c(c1C)C1C=CCC1C(c1ccccn1)N2 (configuration not stated) | – | inconclusive [inhibitor, single point] |
| O=C1c2[nH]nc(-c3ccccc3O)c2C(c2cccc(Br)c2)N1Cc1ccncc1 (configuration not stated) | inactive: -3.7% | – |
| CN1CC=C2C(C#N)=C(N)C(C#N)(C#N)[C@H](c3cccs3)[C@H]2C1 | – | inconclusive [inhibitor, full curve, poor fit] |
| COc1ccc(NC(=O)Cn2ccn(Cc3ccccc3)c(=O)c2=O)cc1Cl | inactive: -5.34% | – |
| NNc1nc2c(Cl)ccc(Cl)c2s1 | – | inconclusive [inhibitor, single point] |
| COc1ccc(NC(=O)CSc2nnc(CNc3ccc(F)cc3)o2)c(OC)c1 | inactive: 6.62% | – |
| Cc1cccn2c(CN(C)C3CCOC3)c(C(=O)N3CCCCC3)nc12 (configuration not stated) | inactive: 6.69% | – |
| CC1N=C2c3ccccc3N=C(SCC(=O)NCc3ccc(Cl)cc3)N2C1=O (configuration not stated) | inactive: -4.78% | – |
| O=C1C2C3C=CC(O3)C2C(=O)N1CC(O)c1ccccc1 (configuration not stated) | inactive: -7.54% | – |
| COc1cccc(NC(=O)CSc2cc(C)[nH]c(=O)n2)c1 | – | inconclusive [inhibitor, single point] |
| CCc1cccc(N=c2c([N+](=O)[O-])nn(-c3ccc4c(c3)OCCO4)n2O)c1 | – | inconclusive [activator, partial curve] |
| Cc1ccc(-c2nc(C)c(CCNC(=O)C(=O)Nc3ccc(C)c(Cl)c3)s2)cc1 | inactive: -6.93% | – |
| CC(=O)Nc1ccccc1OCc1cc(=O)n2c(C)csc2n1 | inactive: -4.41% | – |
| Cc1ccc(C(=O)CSc2nc3ccccc3c(=O)[nH]2)cc1C | – | inconclusive [inhibitor, single point] |

| Structure (SMILES) | activity, negative = inhibition | Potency |
| --- | --- | --- |
| CCC(CC)C(=O)Nc1cccc(-c2nc3ncccn3c2C)c1 | inactive: -4.64% | – |
| O=C(Nc1ccc(Cl)c(S(=O)(=O)Nc2ccccc2Cl)c1)c1cccs1 | – | inconclusive [inhibitor, partial curve] |
| O=C(O)COc1ccc(/C=N/n2c(COc3ccccc3)nc3ccccc3c2=O)cc1 | inactive: 6.78% | – |
| Cc1ccc(C2=NN=C(NC(=O)CSc3nnc4c5ccccc5n(C)c4n3)SC2)cc1 | – | inconclusive [inhibitor, partial curve] |
| N#Cc1cc(N)ccc1Sc1ccccc1 | – | inconclusive [activator, single point] |
| COc1ccc(C(=O)Nc2cc3cc(Cl)ccc3oc2=O)cc1OC | inactive: -18.5% | – |
| CC1(C)Cc2c(C#N)c(N3CCCC3)nc(-c3ccco3)c2CO1 | – | inconclusive [inhibitor, single point] |
| CC(=O)N1CCCc2cc(S(=O)(=O)N3CCC(C(=O)NCc4ccccc4Cl)CC3)ccc21 | inactive: -1.96% | – |
| COC(=O)N/N=C/c1ccc(Oc2ccccc2)cc1 | inactive: -9.53% | – |
| COc1cccc(C(=O)C(C#N)=C(SC)SC)c1 | – | inconclusive [inhibitor, partial curve] |
| COc1cc(NC(=O)Cn2nc(Cc3cccnc3)c3ccccc3c2=O)cc(OC)c1OC | – | inactive |
| COc1cccc(CN(C)C(=O)c2ccc3nccnc3c2)c1 | inactive: 2.88% | – |
| CCN(/C=N/c1sc2c(c1C#N)CCCCC2)CC | – | inconclusive [activator, partial curve, poor fit] |
| O=C(Cc1ccc([N+](=O)[O-])cc1)c1c(O)cc(O)cc1O | inactive: -2.66% | – |
| O=C1C=CC2=C3c4cc(O)c(O)cc4CC3(O)COC2=C1O (configuration not stated) | – | active: 12.6 µM and active: 7.94 µM |
| COc1ccccc1NC(=O)Cn1c(=O)n(CCc2ccccc2)c(=O)c2sc3ccccc3c21 | – | inconclusive [inhibitor, single point] |
| CCOc1ccccc1CNC(=O)CCCn1nc(C)c2sc3ccccc3c2c1=O | – | inconclusive [inhibitor, full curve] |
| O=C(c1sc2cc([N+](=O)[O-])ccc2c1Cl)N1CCCCC1 | – | inconclusive [activator, single point] |
| Cc1ccccc1Nc1cc(C(=O)NC2CCC(C)CC2)c2ccccc2n1 (configuration not stated) | inactive: 0.768% | – |
| O=S(=O)(c1ccc(Cl)cc1)N1CCN(c2nc(-c3cccs3)nc3ccccc23)CC1 | – | inconclusive [inhibitor, single point] |
| Cn1cc(S(=O)(=O)N2CCCCCC2)cc1C(=O)Nc1ccccc1F | inactive: -6.28% | – |
| COc1ccc2oc(-c3ccc(C)c(NC(=O)c4sc5ccccc5c4Cl)c3)nc2c1 | – | inconclusive [inhibitor, partial curve] |
| O=C(O)CC1(CC(=O)Nc2ccc(F)c(Cl)c2)CCCCC1 | inactive: 12.1% | – |
| O=C(NNc1ccccc1Br)C(O)(c1cccc(C(F)(F)F)c1)c1cccc(C(F)(F)F)c1 | – | inconclusive [inhibitor, single point] |

| Structure (SMILES) | activity, negative = inhibition | Potency |
| --- | --- | --- |
| COc1ccc(NC(=O)/C(Cl)=C(/Cl)S(=O)Cc2ccccc2Cl)cn1 (configuration not stated) | – | inconclusive [inhibitor, partial curve] |
| COc1cc(-c2n[nH]c(=O)o2)cc(OC)c1OC | inactive: 1.81% | – |
| COC(=O)c1ccc(C2c3c(-c4ccc(Br)cc4)n[nH]c3C(=O)N2c2ccc(Cl)cc2)cc1 (configuration not stated) | – | inconclusive [inhibitor, partial curve] |
| Cc1cccc(NC(=O)CSc2ncc3c(n2)-c2cc(Cl)ccc2N(C)S3(=O)=O)c1C | – | inconclusive [inhibitor, partial curve, poor fit] |
| COc1ccc(C2=NN(C(=O)COc3ncnc4ccccc34)C(c3ccco3)C2)cc1 (configuration not stated) | inactive: 4.91% | – |
| Cc1ccc(-c2cc(N)n(Cc3ccc(Cl)cc3)n2)cc1 | – | inconclusive [activator, partial curve, poor fit] |
| COc1cc(/C=C2\SC(=O)N(Cc3ccc(F)cc3)C2=O)cc([N+](=O)[O-])c1O | inactive: 16.3% | – |
| COc1cccc(CNC(=O)CSc2cc(C)[nH]c(=O)n2)c1 | inactive: 5.59% | – |
| Cc1ccc2c(c1)/C(=N/N1C(=O)c3ccccc3C1=O)C(=O)N2 | inactive: -2.79% | – |
| COCCNC(=O)Cn1nc(C(F)(F)F)c(Br)c1C | inactive: -0.216% | – |
| Cc1ccc2nc(-c3ccc(SCC(=O)N4CCc5ccccc54)nc3)[nH]c2c1 | – | inconclusive [inhibitor, single point] |
| COC(=O)c1sc(NC(=O)c2ccc(Cn3cc(Cl)cn3)o2)c(C#N)c1C | – | inconclusive [inhibitor, partial curve] |
| Cc1ccc(-c2nc3cc(Cl)ccc3o2)cc1NC(=O)c1cc2ccccc2o1 | inactive: -4.53% | – |
| Cn1cccc1/C=N/NC(=O)CNc1cccc2ccccc12 | – | inconclusive [activator, single point] |
| Cc1cc(C)cc(NS(=O)(=O)c2ccc(-c3cc(C)no3)s2)c1 | – | inconclusive [inhibitor, partial curve] |
| COc1ccccc1NC(=O)C1=C(C)Nc2nnnn2C1c1ccccc1OC (configuration not stated) | inactive: -2.18% | – |
| CN1CCC(=NNC(=O)c2cc(-c3ccc(Cl)cc3)n[nH]2)CC1 | – | inconclusive [inhibitor, single point] |
| COC(=O)CC1=NN(c2ccc(OC)cc2)C(=O)/C1=C\c1ccc(Cl)cc1 | – | inconclusive [inhibitor, single point] |
| CCN(Cc1ccccc1)c1ccc(/C=N/NS(=O)(=O)c2ccc(C)c([N+](=O)[O-])c2)cc1 | – | inconclusive [activator, full curve, poor fit] |
| O=C1c2ccccc2NC(c2ccc(O)cc2)N1/N=C/c1ccc(O)cc1 (configuration not stated) | – | inconclusive [activator, single point] |
| CCOc1ccc(NC(=O)CC2Nc3cccc4cccc(c34)NC2=O)cc1 (configuration not stated) | inactive: 4.15% | – |
| COc1cccc(-n2cc(CN(C)Cc3nc(Cc4cccc(F)c4)no3)cn2)c1 | – | inconclusive [activator, partial curve, poor fit] |
| Cc1c(Cl)cccc1NC(=O)c1cc(-c2cccs2)on1 | – | inconclusive [inhibitor, partial curve] |
| COCCN1CN(S(=O)(=O)c2ccc(Cl)cc2)c2nc3ccccc3nc21 | – | inconclusive [inhibitor, partial curve, poor fit] |
